{"source": "PubChem BioAssay AID1346428", "about": "(National Center for Advancing Translational Sciences (NCATS), 2018)", "note": "“And” between values parts separate entries of the source, which are not always exact repeats. Equal values may be shown once. Among all 48,000 compounds or so, about 1,200 (2.5%) were called active. Another 2% or so got no clear call; they are omitted.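 The calls were made as follows: active = activation of at least 60% and not above a set upper limit (about 1 call in 100 departs from these limits); inconclusive = activation of 40% to 60%, or above that upper limit; inactive = activation under 40%.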 The list shows a part of the results. The source holds several records for some structures; these can differ, active in one and inactive in another."}
{"target": "Probable G-protein coupled receptor 32 (Homo sapiens) (UniProt O75388)", "sequence (O75388 whole entry, looked up, the tested form may be a part)": "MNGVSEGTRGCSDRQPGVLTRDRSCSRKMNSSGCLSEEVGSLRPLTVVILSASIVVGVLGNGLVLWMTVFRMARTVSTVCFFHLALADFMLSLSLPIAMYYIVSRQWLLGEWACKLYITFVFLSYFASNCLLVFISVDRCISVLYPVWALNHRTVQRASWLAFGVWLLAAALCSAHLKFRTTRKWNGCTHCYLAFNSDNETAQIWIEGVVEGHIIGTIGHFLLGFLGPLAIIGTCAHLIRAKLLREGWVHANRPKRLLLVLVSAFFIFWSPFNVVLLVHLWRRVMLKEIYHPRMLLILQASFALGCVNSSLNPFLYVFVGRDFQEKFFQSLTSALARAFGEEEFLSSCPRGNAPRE", "experiment": "qHTS for Agonists of Human Resolvin D1 Receptor DRV1; also: 0% is about no effect", "conditions": "CHO-K1 GPR32 beta-arrestin PathHunter luminescence, 90 min; at 76.9 µM; stronger effect = higher value; zero percent set by DMSO-only wells", "in_short": "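Agonism was scored as beta-arrestin recruitment to ProLink-fused GPR32 in stably transfected CHO-K1 cells, giving a chemiluminescent beta-Gal signal; compounds were incubated 90 min at 37 °C.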"}
{"molecule": "CCOC(=O)CC(NC(=O)N1CCC(CN2CCC(C)CC2)CC1)c1ccccc1", "note": "(centres undefined)", "activation": "inactive: 7.83%"}
{"molecule": "Cc1cc(C)nc(NS(=O)(=O)c2ccc(NC(=O)COc3ccc(C(C)(C)C)cc3)cc2)n1", "activation": "inactive: 12.7%"}
{"molecule": "CC1(C)[C@@H]2CC[C@@]1(C)C(=O)C2", "activation": "inactive: -6.21%"}
{"molecule": "Cc1cccc(C)c1Nc1c(-c2ccsc2)nc2ccc(Cl)cn12", "activation": "inactive: -16.3%"}
{"molecule": "CC(C)Cn1cc(NC(=O)N2CCN(c3ccccc3F)CC2)c2ccccc2c1=O", "activation": "inactive: -11.7%"}
{"molecule": "COc1ccc(OC)c(CCNC(=O)c2cnn(-c3ccccc3)c2C2CCN(C(=O)OC(C)(C)C)CC2)c1", "activation": "inactive: -23.7%"}
{"molecule": "Cc1cccc(CNC(=O)CCn2ccc3cc(S(=O)(=O)N4CCCC4)ccc32)c1", "activation": "inactive: -27.8%"}
{"molecule": "COc1ccc(-c2cn3nc(N4CCCC(C(=O)NCc5ccccc5Cl)C4)sc3n2)cc1", "note": "(centres undefined)", "activation": "inactive: -14.3%"}
{"molecule": "COC(c1ccccc1)(c1ccccc1)[C@H](Oc1nc(C)cc(C)n1)C(=O)O", "activation": "inactive: -1.85%"}
{"molecule": "COC(=O)c1cc2oc3ccccc3c2n1Cc1cc(C)ccc1C", "activation": "inactive: -21.4%"}
{"molecule": "COc1cc(OC)cc(N2CCN(S(=O)(=O)c3ccc(-n4cnnn4)cc3)CC2)c1", "activation": "inactive: -0.884%"}
{"molecule": "O=c1c(N2CCN(c3cccc(C(F)(F)F)c3)CC2)csc2ccc(Cl)cc12", "activation": "inactive: -57.4%"}
{"molecule": "Cc1ccccc1CSc1nc2c(sc3ccccc32)c(=O)n1CCCOC(C)C", "activation": "inactive: 20.7%"}
{"molecule": "O=C1CC(c2ccccc2)Cc2[nH]c(=O)c(-c3nc(-c4ccc(Cl)cc4)cs3)cc21", "note": "(centres undefined)", "activation": "inactive: 4.55%"}
{"molecule": "CCN1CCN(C(c2cccc(F)c2)c2c(O)cc(C)n(Cc3ccco3)c2=O)CC1", "note": "(centres undefined)", "activation": "inactive: -15.7%"}
{"molecule": "Cc1nn(C)c2c1c(-c1ccccc1)cc(=O)n2C(C)C(=O)NCc1ccc(F)cc1", "note": "(centres undefined)", "activation": "inactive: -14%"}
{"molecule": "Cc1ccc(-n2nnnc2CNC(=O)C(C)C)cc1C", "activation": "inactive: 4.49%"}
{"molecule": "CCSc1nnc2c(n1)OC(CC)N(C(C)=O)c1ccccc1-2", "note": "(centres undefined)", "activation": "inactive: 2.02%"}
{"molecule": "CC(=O)c1cccc(NC(c2ccc(F)cc2)c2nnc(-c3ccccc3)o2)c1", "note": "(centres undefined)", "activation": "inactive: 18.9%"}
{"molecule": "Cc1nn(-c2ccccc2)c2sc(C(=O)Nc3ccccc3Br)cc12", "activation": "inactive: -0.778%"}
{"molecule": "Cc1ccc(NC(=O)CN2C(=O)C3(SCC(=O)N3c3cccc(Cl)c3)c3ccccc32)cc1C", "note": "(centres undefined)", "activation": "inactive: 21.3%"}
{"molecule": "CCCN1C[C@H](CSC)C[C@@H]2c3cccc4[nH]cc(c34)C[C@H]21", "activation": "active: 79.4% and inactive: -7.97%"}
{"molecule": "Cc1cccc(C(=O)Nc2nnc(S(=O)(=O)N(C)Cc3ccco3)s2)c1", "activation": "inactive: 21.5%"}
{"molecule": "COc1ccc(CCNC(=O)CSc2nc(-c3ccc(F)cc3)cc(C(F)(F)F)n2)cc1OC", "activation": "inactive: 7.81%"}
{"molecule": "Nc1c(C(=O)Nc2ccc(C(=O)O)cc2)sc2nc3c(cc12)CCCC3", "activation": "inactive: 26.7%"}
{"molecule": "Cc1ccc(NS(=O)(=O)c2ccc3c(c2)CCCN3C(=O)C2CCC2)cc1Cl", "activation": "inactive: -2.37%"}
{"molecule": "O=C(Nc1nnc(S(=O)(=O)Nc2ccccc2)s1)c1ccccc1Cl", "activation": "inactive: -3.5%"}
{"molecule": "CCc1noc(-c2ccc(N3CCCCC3C)c([N+](=O)[O-])c2)n1", "note": "(centres undefined)", "activation": "inactive: -21.9%"}
{"molecule": "O=C(NCc1ccc2c(c1)CCN2C(=O)c1ccc(Cl)cc1)c1cccc(F)c1", "activation": "inactive: -10.1%"}
{"molecule": "Cc1ccc(NC(=O)CCS(=O)(=O)c2cc3c4c(c2)CCN4C(=O)CC3)c(C)c1", "activation": "inactive: 5.73%"}
{"molecule": "COc1cc(OC)cc(C(=O)Nc2ccc(S(=O)(=O)Nc3ncccn3)cc2)c1", "activation": "inactive: -1.11%"}
{"molecule": "Cc1nc2nncn2c(NCc2ccc(F)cc2)c1C", "activation": "inactive: 43.8%"}
{"molecule": "COCCNc1nc2c(S(=O)(=O)c3ccc(C)c(C)c3)nnn2c2ccc(Cl)cc12", "activation": "inactive: 0.763%"}
{"molecule": "CC(=O)Nc1ccccc1", "activation": "inactive: 3.53%"}
{"molecule": "O=C1OC2(c3ccccc31)c1cc(I)c(O)c(I)c1Oc1c2cc(I)c(O)c1I", "activation": "inactive: -63.6%"}
{"molecule": "CCC(Oc1ccccc1)C(=O)Nc1cc(-c2ccccc2OC)nn1-c1ccccc1", "note": "(centres undefined)", "activation": "inactive: 19%"}
{"molecule": "CCCCN(C)C(=O)C1CCC(CNS(=O)(=O)c2ccc(Cl)cc2)CC1", "note": "(centres undefined)", "activation": "inactive: -2.25%"}
{"molecule": "Cc1ccc(-c2nc3c(c(SCC(=O)Nc4ccccc4Cl)n2)Cc2c(CO)cnc(C)c2O3)cc1", "activation": "inactive: 4.94%"}
{"molecule": "CCOC(=O)c1c(S(=O)(=O)NCC(=O)NCc2cccc(C)c2)c(C)n(C)c1C", "activation": "inactive: -27.4%"}
{"molecule": "CC(=O)Nc1ccc(NC(=O)c2oc3ccc4c(c3c2C)C(=O)CC(C)(C)O4)cc1", "activation": "inactive: 20.1%"}
{"molecule": "O=C(NCCc1ccccc1)c1ccc2c(c1)N(Cc1ccccc1F)C(=O)c1ccccc1S2=O", "note": "(centres undefined)", "activation": "inactive: -19.5%"}
{"molecule": "O=c1c(N2CCc3ccccc3C2)csc2ccccc12", "activation": "inactive: -36.3%"}
{"molecule": "CNC(=O)C1CCC(Cn2c(=O)c3sccc3n(CC(=O)NCc3ccc(F)cc3)c2=O)CC1", "note": "(centres undefined)", "activation": "inactive: 0.228%"}
{"molecule": "O=C(C1CCCN(S(=O)(=O)c2ccc(Br)s2)C1)N1CCN(c2ccccc2)CC1", "note": "(centres undefined)", "activation": "inactive: 15.6%"}
{"molecule": "CCOc1ccc(-c2nc3c(c(SCC(=O)N4CCCCC4)n2)Cc2ccccc2O3)cc1", "activation": "inactive: 7.19%"}
{"molecule": "Cc1ccc(-c2ccc(=O)n(CC(=O)Nc3cccc(C#N)c3)n2)cc1", "activation": "inactive: 12.5%"}
{"molecule": "C=Cc1ccc(Cn2c(C(=O)O)c(CNCc3ccccc3)c3ccc(C)cc32)cc1", "activation": "inactive: 9.5%"}
{"molecule": "CC1=C(C(=O)Nc2cccnc2)C(c2ccccc2)n2nc(-c3ccc(O)cc3)nc2N1", "note": "(centres undefined)", "activation": "inactive: -13.1%"}
{"molecule": "Cc1ccc(C2CCN(C(=O)c3cnn(-c4ccc(C)cc4)c3C3CCN(C(=O)OC(C)(C)C)CC3)C2)cc1", "note": "(centres undefined)", "activation": "inactive: -23.2%"}
{"molecule": "COc1ccc(NC(=O)c2ccc3c(=O)n4nc(Nc5cccc(Cl)c5C)sc4nc3c2)cc1", "activation": "inactive: 6.27%"}
{"molecule": "CC(=O)N1CCCc2cc(S(=O)(=O)N3CCCC(C(=O)Nc4cc(Cl)ccc4C)C3)ccc21", "note": "(centres undefined)", "activation": "inactive: -8.92%"}
{"molecule": "Cc1ccc(-c2csc(=Nc3ccc(F)cc3)n2Cc2ccc3c(c2)OCO3)cc1C", "activation": "inactive: -5.69%"}
{"molecule": "CCCCCCCCCCCCCCCCN", "activation": "inactive: 3.75%"}
{"molecule": "CCOc1ccccc1NS(=O)(=O)c1ccc(-c2cnc(C3CC3)o2)cc1", "activation": "inactive: -6.6%"}
